# Results taken from PMC4336329 (PLoS ONE, 2015).
# The whole screen tested about 310,000 compounds, of which about 2,200 (0.71%) showed an effect of 50% or more. Effects have a minus sign here. Some of the results follow.
# Biological target: human ether-à-go-go-related gene (hERG) potassium channel (human, UniProt Q12809)
# Assay: primary screen, population patch clamp on CHO cells stably expressing hERG
# Sequence of human ether-à-go-go-related gene (hERG) potassium channel (Q12809 whole entry, looked up): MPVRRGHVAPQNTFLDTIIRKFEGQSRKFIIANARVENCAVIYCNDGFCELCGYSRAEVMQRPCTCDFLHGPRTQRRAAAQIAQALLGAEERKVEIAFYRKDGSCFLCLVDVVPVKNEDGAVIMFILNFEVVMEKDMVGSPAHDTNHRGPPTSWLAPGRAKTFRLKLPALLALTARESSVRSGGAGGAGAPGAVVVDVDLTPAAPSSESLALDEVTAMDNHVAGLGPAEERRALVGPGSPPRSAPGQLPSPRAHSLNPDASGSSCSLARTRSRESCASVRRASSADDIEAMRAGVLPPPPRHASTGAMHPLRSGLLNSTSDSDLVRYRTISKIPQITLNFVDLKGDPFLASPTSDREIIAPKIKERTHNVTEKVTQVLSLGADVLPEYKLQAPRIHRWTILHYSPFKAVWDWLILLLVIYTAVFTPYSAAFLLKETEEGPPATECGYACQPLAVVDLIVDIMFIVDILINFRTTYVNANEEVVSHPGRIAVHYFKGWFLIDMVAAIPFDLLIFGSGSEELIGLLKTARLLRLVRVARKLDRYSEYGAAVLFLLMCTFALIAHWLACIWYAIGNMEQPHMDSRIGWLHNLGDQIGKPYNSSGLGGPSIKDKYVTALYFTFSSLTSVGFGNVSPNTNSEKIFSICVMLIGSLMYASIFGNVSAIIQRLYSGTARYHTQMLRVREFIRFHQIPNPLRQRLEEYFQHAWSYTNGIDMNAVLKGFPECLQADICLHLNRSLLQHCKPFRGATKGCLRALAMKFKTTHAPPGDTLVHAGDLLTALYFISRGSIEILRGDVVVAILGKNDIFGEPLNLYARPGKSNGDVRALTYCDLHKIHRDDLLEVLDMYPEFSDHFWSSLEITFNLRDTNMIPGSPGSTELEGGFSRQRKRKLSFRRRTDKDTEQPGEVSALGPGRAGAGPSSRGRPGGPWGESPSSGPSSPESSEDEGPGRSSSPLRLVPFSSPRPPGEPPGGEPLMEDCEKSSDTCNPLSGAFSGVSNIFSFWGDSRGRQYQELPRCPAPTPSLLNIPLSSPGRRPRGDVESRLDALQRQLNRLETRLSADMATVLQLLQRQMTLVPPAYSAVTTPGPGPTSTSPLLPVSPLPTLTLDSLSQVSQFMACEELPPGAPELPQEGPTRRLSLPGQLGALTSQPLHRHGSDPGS
row,Compound,"hERG current change (%, negative = inhibition) at 1uM [%]"
1,CCN1CCc2c(C#N)c(N3CCCCC3)nc(N3CCOCC3)c2C1,12.1
2,Cc1ccc(CN2CC(=O)N3[C@H]4c5ccccc5OC[C@@H]4[C@H](c4ccccc4)[C@]3(C)C2=O)cc1,12.9
3,CCN(CC)C(=O)Cc1cc(C(=O)O)c2ccccc2n1,13.3
4,COc1ccc(-n2nc(C(=O)NCC(=O)N3CC(C)CC(C)C3)c3ccccc3c2=O)c(OC)c1 (centres unmarked),5.75
5,O=S(=O)(NC1CC1)c1ccc(S(=O)(=O)N2CCN3CCCC3C2)cc1 (centres unmarked),9.94
6,Cc1ccccc1NC(=O)c1cccc(S(C)(=O)=O)c1,10
7,CCCc1cc(=O)oc2cc(C)cc(OCC(=O)NCc3ccncc3)c12,-48
8,COc1c(O)cc2c(c1O)C1OC(CO)C(O)C(O)C1OC2=O.O (centres unmarked),2.31
9,CCCN1CCc2c(sc(NC(=O)c3ccc(S(=O)(=O)N4CCN(C(=O)OCC)CC4)cc3)c2C(N)=O)C1,9.17
10,Cc1ccc(OCC(=O)NCCS(=O)(=O)N2CCN(c3ccccc3)CC2)cc1,0.887
11,CCOc1cc(/C=C2/C(=N)N3C=CSC3=NC2=O)ccc1OCCCOc1ccccc1C,12.3
12,Cc1ccc(Nc2nnc(-c3ccccc3N)o2)cc1C,16.8
13,O=S(=O)(c1ccc(Br)cc1Cl)N1CC[NH+](CCO)CC1.[Cl-],6.69
14,COC(=O)c1oc2ccc(Br)cc2c1-n1cccc1,9.79
15,COc1ccc(-c2csc(NC(=O)CCS(=O)(=O)c3ccccc3)n2)c(OC)c1,8.63
16,CCOC(=O)C1CCN(C(=O)CCNS(=O)(=O)c2ccc3c(c2)CCN3C(=O)CC)CC1,12.3
17,Cc1cc(Cl)ccc1Oc1ccc(C(N)=O)cc1[N+](=O)[O-],16.2
18,O=C(CN1C(=O)COc2ccc(Cl)cc21)Nc1ccc2c(c1)OCCO2,14.2
19,Cc1c(C)c(C)c(C(=O)CCc2cccc(NC(=O)CCC(=O)O)c2)c(C)c1C,3.31
20,CCn1c(SCC(=O)N2CCCCC2)nc2c(c1=O)SC(C)C2 (centres unmarked),9.77
21,COc1ccc(/C=N/N2CCOCC2)cc1O,6.81
22,S=C(c1ccc(N2CCCC2)cc1)N1CCCCC1,13

row,Compound,"hERG current change (%, negative = inhibition) at 1uM [%]"
1,CC1(c2cccc(Br)c2)NC(=O)N(CC(=O)Nc2ccc(F)cc2)C1=O (centres unmarked),8.46
2,O=C(CC(C(=O)O)C1CCCO1)NCCc1ccc2c(c1)OCO2 (centres unmarked),-5.37
3,COc1ccc2ccccc2c1/C=N/NC(=O)c1cccc(Br)c1,16.5
4,CC(=O)NCC(=O)OCC(=O)c1ccc(Br)cc1,13.2
5,CCc1noc(C)c1C(=O)NNC(=O)c1cc(OC)cc(OC)c1,9.15
6,N#C/C(=C\c1ccc2c(c1)OCCO2)C(=O)Nc1nccs1,18.4
7,Cc1cc([N+](=O)[O-])nn1CCCC(=O)Nc1cc(Oc2ccccc2)cc([N+](=O)[O-])c1,-3.87
8,CC(C)C(NS(=O)(=O)c1cccs1)C(=O)N1CCc2ccccc2C1 (centres unmarked),15.8
9,COCCn1c(N)c(N(Cc2ccccc2)C(=O)CSCC(=O)Nc2ccc(C)cc2)c(=O)[nH]c1=O,4.15
10,Cc1ccc(N2C(=O)N(CC(=O)Nc3cc(F)ccc3C)C(=O)C2C)cc1 (centres unmarked),16.4
11,Cc1cc(=O)[nH]c(SCC(=O)O)c1C#N,17.8
12,Cc1cc(C(=O)NC2CCCCC2)c2cc(F)ccc2n1,9.51
13,Cc1cc(N2C(=O)C(O)=C(C(=O)c3ccco3)C2c2ccc(O)cc2)no1 (centres unmarked),16.3
14,COc1cc(CCCN2C(N)=NC[C@@H]2Cc2ccccc2)cc(OC)c1OC,14.3
15,Cc1c(/C=N/NC(=O)c2cc(Br)ccc2O)c(=O)n(C)c(=O)n1C,6.15
16,Cc1ccc(C)c(S(=O)(=O)N2CCCOC2CNC(=O)C(=O)NCCC2=CCCCC2)c1 (centres unmarked),16.5
17,Cc1cc(C)c(C#N)c(SCS(=O)c2ccc(C(C)(C)C)cc2)n1 (centres unmarked),8.89
18,Cc1ccccc1N1CCN(C(=O)CN2C(=O)c3ccccc3C2=O)CC1,4.17
19,CC1=C(C(=O)Nc2ccccc2)C(c2ccc(O)cc2)N2C(=O)CSC2=N1 (centres unmarked),2.2
20,COc1ccc(Cn2c(=O)c3[nH]cnc3n(-c3ccccc3C)c2=O)cc1,6.75
21,Cc1ccc(CNC(=O)C2CCC(=O)N(CCc3cccc(F)c3)C2)cc1 (centres unmarked),-0.875
22,COC(=O)/C(C#N)=C/c1c(N2CCN(c3ccc(OC)cc3)CC2)nc2c(C)cccn2c1=O,8.7
